# Laboratory results from PubChem BioAssay (Tox21).
# Values joined by “and” are separate entries in the source; they are usually repeats but may differ in a detail not shown here. Identical values can stand only once. Inconclusive results, whose numbers are uncertain, are shown with a selection of clear calls. For some of these results: Potencies of inconclusive entries are left out as doubtful fits. Active and inactive are the calls of the source. Unless noted, calls follow the shape of the dose curve; as a rule, active = well fitted curve in the direction sought with a large enough effect in the repeat runs; inconclusive = weak or mixed curves; inactive = no such curve, though single readings can be large; an effect the other way counts as inactive or inconclusive.
# Key:
# [1] = target: Peroxisome proliferator-activated receptor gamma (Homo sapiens) (UniProt P37231); assay: qHTS assay to identify small molecule antagonists of the peroxisome proliferator-activated receptor gamma (PPARg) signaling pathway (AID 743191; calls by dose curve; also: nearly all actives have a fitted effect of over 30% in size; also: potency is read from the fitted curve at half-maximal effect; as to ratio activity, negative = inhibition: % is scaled to controls: 0 for no effect and ±100 for the full control effect); details: HEK293H PPARg-UAS-bla, beta-lactamase ratio, antagonist, 17 h; ratio activity, negative = inhibition: at 62.6 µM (top of the series) unless noted
# Summary of the method: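 GeneBLAzer PPARg UAS-bla HEK293H cells, 5 h post-plating, exposed to compounds 17 h at 37C. LiveBLAzer B/G FRET substrate added for 1 h at room temperature; beta-lactamase reporter read by fluorescence intensity.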
# [2] = target: Peroxisome proliferator-activated receptor delta (Homo sapiens) (UniProt Q03181); assay: qHTS assay to identify small molecule antagonists of the peroxisome proliferator-activated receptor delta (PPARd) signaling pathway (AID 743215; active = well fitted inhibition curve with a large enough effect in the signal ratio in the repeat runs, not every such curve was filed as active; inconclusive = weak or mixed curves, or effect the other way; inactive = no such curve, though single readings can be large or run the other way; the % refers to the signal ratio;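 also: cells stimulated with agonist L165041 at 300 nM final during compound exposure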; also: potency is read from the fitted curve at half-maximal effect); details: HEK293H PPARd-UAS-bla, beta-lactamase FRET ratio, antagonist, 17 h; ratio activity, negative = inhibition: at 62 µM (top of the series) unless noted
# Summary of the method: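 PPARd UAS-bla HEK293H cells were pre-incubated 5 h at 37 C, then given test compounds in DMSO plus agonist L165041 (300 nM final). After 17 h at 37 C, beta-lactamase FRET substrate was added; fluorescence read after 2 h at room temperature.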
# [3] = target: Bile acid receptor (Homo sapiens) (UniProt Q96RI1); assay: qHTS assay to identify small molecule antagonists of the farnesoid-X-receptor (FXR) signaling pathway (AID 743217; active = well fitted inhibition curve with a large enough effect in the signal ratio in the repeat runs, not every such curve was filed as active; inconclusive = weak or mixed curves, or effect the other way; inactive = no such curve, though single readings can be large or run the other way; the % refers to the signal ratio; also: % is scaled to controls: 0 for no effect and ±100 for the full control effect); details: HEK293T FXR-UAS-bla, beta-lactamase ratio, CDCA-stimulated, 16 h; activity change, negative = inhibition: at 62.6 µM (top of the series) unless noted
# Summary of the method: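 FXR-UAS-bla HEK 293T cells pre-incubated 5 h at 37 °C, then exposed to compounds with chenodeoxycholic acid (50 uM final) for 16 h at 37 °C. Beta-lactamase reporter read by LiveBLAzer B/G FRET substrate fluorescence after 2 h at room temperature.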
# [4] = qHTS assay to identify small molecule antagonists of the peroxisome proliferator-activated receptor gamma (PPARg) signaling pathway - cell viability counter screen (AID 743194); details: PPARg-bla HEK293H viability, CellTiter-Glo luminescence, 17 h, co-treated with 50 nM rosiglitazone; activity change, negative = cytotoxicity: at 62.6 µM (top of the series) unless noted; also: % is scaled to controls: 0 for no effect and ±100 for the full control effect; nearly all actives have a fitted effect of over 55% in size
# Summary of the method: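 Cytotoxicity counter screen in PPARg-bla HEK293H cells, same wells as reporter assay. Compounds plus 50 nM rosiglitazone (final) for 17 h at 37 C, then viability read by CellTiter-Glo luminescence.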
# [5] = qHTS assay for small molecule agonists of the antioxidant response element (ARE) signaling pathway (AID 743202; active = well fitted activation curve with a large enough effect in the signal ratio in the repeat runs, not every such curve was filed as active; inconclusive = weak or mixed curves, or effect the other way; inactive = no such curve, though single readings can be large or run the other way; the % refers to the signal ratio; also: potency is read from the fitted curve at half-maximal effect); details: HepG2 ARE-bla reporter, beta-lactamase FRET, 16 h; activation: at 73.3 µM (top of the series) unless noted
# Summary of the method: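 ARE-bla HepG2 cells (beta-lactamase reporter under the antioxidant response element), plated 5 hours, then exposed to compounds 16 hours at 37 C. LiveBLAzer B/G FRET substrate added for 2 hours at room temperature; fluorescence intensity read.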
# [6] = qHTS assay for small molecule activators of the heat shock response signaling pathway (AID 743210; active = well fitted activation curve with a large enough effect in the signal ratio in the repeat runs, with a control signal flat, not every such curve was filed as active; inconclusive = weak or mixed curves; the % refers to the signal ratio; also: potency is read from the fitted curve at half-maximal effect); details: HeLa HSE-bla reporter, beta-lactamase ratio, 5 h; activation: at 62.6 µM (top of the series) unless noted
# Summary of the method: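 HSE-bla HeLa cells (beta-lactamase reporter under heat shock response elements), plated overnight, then exposed to compounds 5 h at 37 C; LiveBLAzer B/G FRET substrate added, 2.5 h at room temperature, fluorescence intensity read.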
# [7] = qHTS assay to identify small molecule agonists of the peroxisome proliferator-activated receptor delta (PPARd) signaling pathway - cell viability counter screen (AID 743211); details: PPARd-bla HEK293H viability, CellTiter-Glo luminescence, 17 h; activity change, negative = cytotoxicity: at 62.6 µM (top of the series) unless noted; also: potency is read from the fitted curve at half-maximal effect; nearly all actives have a fitted effect of over 55% in size
# Summary of the method: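 qHTS cell viability: PPARd-bla HEK293H; 17 h cpd, 37C; CellTiter-Glo, luminescence at 30 min RT.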
# [8] = qHTS assay to identify small molecule antagonists of the peroxisome proliferator-activated receptor delta (PPARd) signaling pathway - cell viability counter screen (AID 743213); details: PPARd-bla HEK293H viability, CellTiter-Glo luminescence, 17 h; viability change, negative = cytotoxic: at 62 µM (top of the series) unless noted; also: potency is read from the fitted curve at half-maximal effect; nearly all actives have a fitted effect of over 50% in size
# Summary of the method: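 In this counter screen, HEK293H cells carrying a UAS-beta-lactamase reporter are co-treated with test compounds and 300 nM L165041 (final) for 17 h at 37 C; cell viability is quantified by CellTiter-Glo luminescence.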
# [9] = qHTS assay to identify small molecule agonists of the farnesoid-X-receptor (FXR) signaling pathway - cell viability counter screen (AID 743218); details: FXR-bla HEK293T viability, CellTiter-Glo luminescence, 16 h; viability change, negative = cytotoxic: at 62.6 µM (top of the series) unless noted; also: % is scaled to controls: 0 for no effect and ±100 for the full control effect; nearly all actives have a fitted effect of over 45% in size
# Summary of the method: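 FXR-UAS-bla HEK 293T cells, plated 5 h at 37 C, were exposed to compounds for 16 h at 37 C. CellTiter-Glo was then added to the same wells as the bla readout; luminescence read after 30 min at room temperature.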
# [10] = qHTS assay to identify small molecule agonists of the vitamin D receptor (VDR) signaling pathway - cell viability counter screen (AID 743224); details: VDR-bla HEK293T viability, CellTiter-Glo luminescence, 16 h; activity change, negative = cytotoxicity: at 62.6 µM (top of the series); also: potency is read from the fitted curve at half-maximal effect; nearly all actives have a fitted effect of over 50% in size
# Summary of the method: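 VDR-bla cells were preincubated 4 h at 37C/5% CO2, then exposed to compounds for 16 h. After the 2 h room-temperature bla FRET read, CellTiter-Glo was added to the same wells and luminescence read after 30 min.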
# [11] = target: Vitamin D3 receptor (Homo sapiens) (UniProt P11473); assay: qHTS assay to identify small molecule agonists of the vitamin D receptor (VDR) signaling pathway (AID 743222; calls by dose curve; also: % is scaled to controls: 0 for no effect and ±100 for the full control effect); details: HEK293T VDR-UAS-bla, beta-lactamase FRET ratio, 16 h; activation: at 63.5 µM (top of the series) unless noted
# Summary of the method: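 VDR-bla cells were plated 4 h at 37C/5% CO2, then exposed to compounds in DMSO for 16 h. After LiveBLAzer B/G FRET substrate addition and 2 h at room temperature, beta-lactamase reporter fluorescence was read.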
# [12] = target: Peroxisome proliferator-activated receptor delta (Homo sapiens) (UniProt Q03181); assay: qHTS assay to identify small molecule agonists of the peroxisome proliferator-activated receptor delta (PPARd) signaling pathway (AID 743212; calls by dose curve; also: potency is read from the fitted curve at half-maximal effect); details: HEK293H PPARd-UAS-bla, beta-lactamase FRET ratio, 17 h; activation: at 62.6 µM (top of the series) unless noted
# Summary of the method: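 GeneBLAzer UAS-bla HEK293H cells carrying a PPARδ construct were exposed to compounds at 37 °C. Beta-lactamase activity was read by FRET fluorescence after 2 h at room temperature with LiveBLAzer B/G substrate.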
# [13] = target: Bile acid receptor (Homo sapiens) (UniProt Q96RI1); assay: qHTS assay to identify small molecule agonists of the farnesoid-X-receptor (FXR) signaling pathway (AID 743220; active = well fitted activation curve with a large enough effect in the signal ratio in the repeat runs, not every such curve was filed as active; inconclusive = weak or mixed curves, or effect the other way; the % refers to the signal ratio; also: potency is read from the fitted curve at half-maximal effect); details: HEK293T FXR-UAS-bla, beta-lactamase FRET ratio, 16 h; activation: at 62.6 µM (top of the series) unless noted
# Summary of the method: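 Beta-lactamase reporter under UAS control in GeneBLAzer FXR HEK 293T cells (5000/well) measured with LiveBLAzer FRET substrate after 2 h at room temperature. Compound exposure lasted 16 h at 37C.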
# [14] = qHTS assay for small molecule activators of the heat shock response signaling pathway - cell viability counter screen (AID 743209); details: HSE-bla HeLa viability, CellTiter-Glo luminescence, 5 h; activity change, negative = cytotoxicity: at 62.6 µM (top of the series) unless noted; also: potency is read from the fitted curve at half-maximal effect; nearly all actives have a fitted effect of over 50% in size
# Summary of the method: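 CellSensor HSE-bla HeLa cells, plated overnight at 37 C/5% CO2, were exposed to compounds in DMSO for 5 h at 37 C. Viability was then read in the same wells by CellTiter-Glo luminescence after 30 min at room temperature.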
# [15] = target: Vitamin D3 receptor (Homo sapiens) (UniProt P11473); assay: qHTS assay to identify small molecule antagonists of the vitamin D receptor (VDR) signaling pathway (AID 743223; active = well fitted inhibition curve with a large enough effect in the signal ratio in the repeat runs, not every such curve was filed as active; inconclusive = weak or mixed curves, or effect the other way; inactive = no such curve, though single readings can be large or run the other way; the % refers to the signal ratio; also: % is scaled to controls: 0 for no effect and ±100 for the full control effect); details: VDR-UAS-bla HEK293T, beta-lactamase FRET ratio, 16 h; activity change, negative = inhibition: at 61 µM (top of the series) unless noted
# Summary of the method: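 Reporter line VDR-bla; stimulus 1alpha,25-(OH)2 vitamin D3, 3 nM final; compound co-addition, 16 h 37C/5% CO2; LiveBLAzer B/G substrate 2 h RT; fluorescence intensity.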
# Tags tell the direction and shape of the fitted curve or compound fluorescence and quenching.
# Sequence of UniProt Q03181 (Q03181 whole entry, looked up): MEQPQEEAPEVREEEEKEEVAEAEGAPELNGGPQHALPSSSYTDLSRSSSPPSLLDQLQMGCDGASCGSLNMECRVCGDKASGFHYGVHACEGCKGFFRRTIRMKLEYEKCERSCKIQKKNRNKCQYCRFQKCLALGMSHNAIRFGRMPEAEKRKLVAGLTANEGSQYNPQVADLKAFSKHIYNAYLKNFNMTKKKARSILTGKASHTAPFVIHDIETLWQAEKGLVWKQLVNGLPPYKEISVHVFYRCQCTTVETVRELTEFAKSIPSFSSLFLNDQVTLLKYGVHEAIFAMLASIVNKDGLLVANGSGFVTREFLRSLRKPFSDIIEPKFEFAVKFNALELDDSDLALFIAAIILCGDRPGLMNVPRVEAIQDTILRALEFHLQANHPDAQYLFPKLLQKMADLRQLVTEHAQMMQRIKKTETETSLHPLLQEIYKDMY
# Sequence of UniProt Q96RI1 (Q96RI1 whole entry, looked up): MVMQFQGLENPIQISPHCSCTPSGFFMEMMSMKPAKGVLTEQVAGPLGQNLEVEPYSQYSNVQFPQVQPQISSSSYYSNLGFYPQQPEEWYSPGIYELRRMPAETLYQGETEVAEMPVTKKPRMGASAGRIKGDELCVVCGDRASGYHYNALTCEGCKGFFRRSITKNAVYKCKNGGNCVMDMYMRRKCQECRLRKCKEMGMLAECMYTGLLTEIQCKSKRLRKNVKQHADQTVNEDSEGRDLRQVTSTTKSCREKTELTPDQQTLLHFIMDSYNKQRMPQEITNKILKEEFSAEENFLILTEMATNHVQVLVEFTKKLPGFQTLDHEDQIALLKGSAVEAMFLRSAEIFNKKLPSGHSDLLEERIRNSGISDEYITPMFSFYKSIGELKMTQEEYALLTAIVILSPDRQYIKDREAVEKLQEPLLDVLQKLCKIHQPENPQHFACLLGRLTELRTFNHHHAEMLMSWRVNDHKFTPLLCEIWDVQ
# Sequence of UniProt P37231 (P37231 whole entry, looked up): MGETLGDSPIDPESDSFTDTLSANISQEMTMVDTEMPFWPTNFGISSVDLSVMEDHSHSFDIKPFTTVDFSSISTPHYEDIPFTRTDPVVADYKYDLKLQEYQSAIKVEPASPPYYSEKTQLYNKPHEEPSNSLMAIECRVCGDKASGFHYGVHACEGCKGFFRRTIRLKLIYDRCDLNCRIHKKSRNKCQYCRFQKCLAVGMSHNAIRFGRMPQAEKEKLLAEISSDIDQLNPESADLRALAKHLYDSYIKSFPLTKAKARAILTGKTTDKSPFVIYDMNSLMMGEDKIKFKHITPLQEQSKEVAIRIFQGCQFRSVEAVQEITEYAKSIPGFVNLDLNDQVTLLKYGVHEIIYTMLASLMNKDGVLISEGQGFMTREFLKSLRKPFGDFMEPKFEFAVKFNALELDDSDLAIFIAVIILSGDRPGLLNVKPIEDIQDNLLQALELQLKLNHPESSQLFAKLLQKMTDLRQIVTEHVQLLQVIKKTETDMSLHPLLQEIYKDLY
# Sequence of UniProt P11473 (P11473 whole entry, looked up): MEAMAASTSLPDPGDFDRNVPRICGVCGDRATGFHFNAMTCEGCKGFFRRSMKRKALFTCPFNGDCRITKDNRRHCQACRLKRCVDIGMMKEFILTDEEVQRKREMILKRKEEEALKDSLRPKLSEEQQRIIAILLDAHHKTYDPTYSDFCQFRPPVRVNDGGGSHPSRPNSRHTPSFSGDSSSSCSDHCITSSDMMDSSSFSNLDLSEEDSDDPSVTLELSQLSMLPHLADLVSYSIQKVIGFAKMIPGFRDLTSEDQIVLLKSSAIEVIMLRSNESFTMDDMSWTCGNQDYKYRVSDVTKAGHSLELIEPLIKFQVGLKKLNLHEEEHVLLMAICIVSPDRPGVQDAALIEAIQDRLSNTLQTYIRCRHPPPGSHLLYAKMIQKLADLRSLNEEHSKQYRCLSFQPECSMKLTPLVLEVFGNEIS
structure (smiles),measurement,setting,value
COc1c(N2C[C@@H]3CCCN[C@@H]3C2)c(F)cc2c(=O)c(C(=O)O)cn(C3CC3)c12,Potency,[1],inactive
same,Potency,[2],inactive
C[C@@H]1C[C@H]2[C@@H]3C[C@H](F)C4=CC(=O)C(Cl)=C[C@]4(C)[C@@]3(F)[C@@H](O)C[C@]2(C)[C@@]1(O)C(=O)CO,"ratio activity, negative = inhibition",[1],inconclusive: 5.82%
same,"ratio activity, negative = inhibition",[2],inconclusive: 11.5%
same,Potency,[3],inactive
O=C(O)c1cc(=O)[nH]c(=O)[nH]1,"activity change, negative = cytotoxicity",[4],inconclusive: 32.7%
same,Potency,[5],inactive
same,Potency,[6],inconclusive [activator]
same,Potency,[7],"inconclusive [cytotoxic, single point]"
same,Potency,[8],"inconclusive [cytotoxic, single point]"
same,"ratio activity, negative = inhibition",[2],inconclusive: -52.2%
same,Potency,[9],inactive
same,Potency,[10],"inconclusive [cytotoxic, single point]"
CCN(CC)CCOC(=O)C(Cc1cccc2ccccc12)CC1CCCO1 (centres undefined),Potency,[1],inactive
same,Potency,[11],inactive
CN1CCC[C@H]1c1cccnc1,Potency,[4],inactive
same,Potency,[5],inactive
O=C(CCCCCCCCC#CI)Oc1ccccc1,Potency,[1],inconclusive [inhibitor]
same,Potency,[12],"inconclusive [rising, full curve]"
same,Potency,[3],inactive
CNC(=O)c1ccccc1Sc1ccc2c(/C=C/c3ccccn3)n[nH]c2c1,Potency,[13],"inconclusive [rising, partial curve, poor fit]"
Cc1c(O)cccc1C(=O)N[C@@H](CSc1ccccc1)[C@H](O)CN1C[C@H]2CCCC[C@H]2C[C@H]1C(=O)NC(C)(C)C,Potency,[13],inconclusive
COC(=O)CC(C)CCC=C(C)C (centres undefined),Potency,[5],"inconclusive [rising, partial curve]"
same,Potency,[14],"inconclusive [cytotoxic, partial curve, poor fit]"
same,Potency,[6],inconclusive
same,Potency,[8],"inconclusive [cytotoxic, single point]"
same,Potency,[2],inconclusive [single point]
same,Potency,[3],inactive
same,Potency,[13],"inconclusive [rising, partial curve, poor fit]"
same,Potency,[15],inactive
NC(=O)OCC(COC(N)=O)c1ccccc1,activation,[5],inconclusive: -0.511% and inconclusive: -8.12%
same,Potency,[14],"inconclusive [cytotoxic, single point]"
same,Potency,[7],"inconclusive [cytotoxic, single point]"
COc1ccccc1N1CCN(CCCCNC(=O)c2ccc(-c3ccc(C(C)=O)cc3)cc2)CC1,activation,[5],inconclusive: 27.8%
